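In this assay, cells in 96-well plates receive the compound at five concentrations for 48 hours. Endpoints are linearly interpolated between the surrounding concentrations. GI50 is the concentration that inhibits growth by half. TGI denotes the concentration required for complete inhibition of growth.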

The subject of this test is NCI-H322M lung. The experiment in a line: NCI tumour cell line growth inhibition, 48 h.
Consider `COc1cc(/C=C2\CN(C(=O)CCN3CCC(=NO)CC3)C/C(=C\c3cc(OC)c(OC)c(OC)c3)C2=O)cc(OC)c1OC`, for which the GI50 was 0.745 µM and the TGI came to 2.03 µM.
On to `Nn1c(Sc2nc3ccccc3c(=O)n2N)nc2ccccc2c1=O`, for which the TGI worked out at 49.7 µM.
Take `O=c1cc(-c2ccccn2)[nH]c2cc(F)ccc12`: the TGI is over 100 µM.
Still for that read-out and setting: with `N#Cc1c(N2CCN(c3ccc([N+](=O)[O-])cc3)CC2)[n+](=O)c2ccc(-c3ccc([N+](=O)[O-])cc3)cc2n1[O-]` the figure was over 100 µM.
Regarding `Cn1cc(C2=C(c3cn(C)c4cc(N)ccc34)C(=O)NC2=O)c2ccccc21`, the GI50 is 7.15 µM and the TGI is over 23.5 µM.
With `O=C(O)c1cccc(/C=C/c2ccccc2)c1`, the TGI was over 100 µM.
With `Cc1cc(=O)oc2cc(OC(=O)N(CCCl)CCCl)ccc12`, the TGI is over 100 µM.
`COC(=O)c1cc(C)ccc1/C=C1\Cc2c(C)cc(C)cc2C1=O` displayed a TGI of over 100 µM.
On the same count and under the same terms, the result for `CCN(CC)C1Oc2cc3c(cc2C(c2cc(OC)c(OC)c(OC)c2)C1C)OCO3` (stereo not given) reads over 32 µM.
In the case of `Cc1nc(Nc2nc3ccccc3[nH]2)nc(Cl)c1CCCl`, the TGI is over 100 µM.
Same read-out and setting: the result for `Clc1ccc2c(c1)[nH]c1c2nc2sccn21` reads over 100 µM; that for `S=P(N1CCCC1)(N1CC1)N1CC1`, over 100 µM; that for `Cc1ccc(/C=C2/NC(=S)SC2=O)cc1`, over 100 µM.
